This is an account of results in publication PMC5648805, “Calmodulin dissociates the STIM1-Orai1 complex and STIM1 oligomers” (Nature Communications, 2017).

One data set deals with T1, Orai1-CFP (human, UniProt Q96D31 1-301).
T1 construct: Orai1; the construct Orai1-CFP is not described in the methods; The electrophysiology used CFP-Orai1 and the Ca2+ imaging Cherry-Orai1; source: HEK cells stably expressing Orai1-CFP (gift), or HEK293T, transfected; in live cells; not shown: CFP, C-terminal, kept
As to the kind of experiment: FRET or BRET; CFP-YFP index-based FRET, apparent FRET efficiency (Eapp), live HEK293T or HEK Orai1-CFP stable cells, room temperature; resting, after Ca2+ addition or after 1 μM thapsigargin as named. To be noted: partners not purified.

Data set [1] deals with the molecule itself. As to the kind of experiment: SEC-MALS; 100 μM protein on Superdex 200 10/300, 25 mM Tris-HCl pH 7.5, 200 mM NaCl, 0.5 ml/min. A general note: Size exclusion chromatography separates by hydrodynamic size, large species first.

The stoichiometry N is the number of molecules, sites or subunits per partner or assembly.

Orai1-CFP, sequence (Q96D31 whole entry): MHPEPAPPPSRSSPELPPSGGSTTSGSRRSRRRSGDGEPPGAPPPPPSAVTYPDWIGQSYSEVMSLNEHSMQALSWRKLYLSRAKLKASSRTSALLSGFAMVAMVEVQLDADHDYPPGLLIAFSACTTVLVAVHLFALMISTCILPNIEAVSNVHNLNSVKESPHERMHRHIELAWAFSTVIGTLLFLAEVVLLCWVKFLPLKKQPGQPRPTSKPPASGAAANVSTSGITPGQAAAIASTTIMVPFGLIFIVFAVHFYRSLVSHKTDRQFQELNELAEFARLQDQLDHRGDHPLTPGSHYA

B1: STIM1-YFP (natural protein, human)
chain: LSHSHSEKATGTSSGANSEESTAAEFCRIDKPLCHSEDEKLSFEAVRNIHKLMDDDANGDVDVEESDEFLREDLNYHDPTVKHSTFHGEDKLISVEDLWKAWKSSEVYNWTVDEVVQWLITYVELPQYEETFRKLQLSGHAMPRLAVTNTTMTGTVLKMTDRSHRQKLQLKALDTVLFGPPLLTRHNHLKDFMLVVSIVIGVGGCWFAYI[skipping about 450 residues]RKKFPLKIFKKPLKK
notes: STIM1, human, full-length cDNA in pEYFP-C1 between BglII and EcoRI; 685 amino acids; In the STIM1-STIM1 FRET the second copy was STIM1-CFP; also called STIM1-WT; STIM1 WT; source: HEK293T, transfected, in lysate; not shown: YFP, C-terminal, kept
B1: the “fold increase of FRET Eapp after Ca2+ depletion from the ER” value in the data set with Orai1-CFP was ~2 fold.

B2: SOAR L390S-F391S (LF-SS) mutant, recombinant (domain or fragment)
chain: not shown
notes: SOAR domain of human STIM1 with L390S and F391S; also called SOAR–LF-SS; source: E. coli, purified (same protocol as SOAR WT); not shown: MBP, N-terminal, cleaved
Take B2: in data set [1], the “stoichiometry N” value is 2.
